SMILES strings stand for the structures. Screen size: about 150,000 compounds; about 540 (0.36%) showed an effect of 50% or more. The list shows a part of the results.

For orientation: % Inhibition means the relative decrease from the control value, in per cent.

The test system of this experiment is Plasmodium falciparum. The experiment can be described thus: Primary screen in NF54 nanoGlo assay, in single point, at 2uM, 72h; a lower Z score goes with more inhibition. In kind it is functional, Erythrocyte. The note with it: timepoint 72 hour.
For the compound `C[C@H](Oc1ccc(S(C)(=O)=O)cc1)c1nc2ccccc2o1`, the “% Inhibition” value is -2% and the Z score turned out to be 0.26.

As to `COc1ccc(C(=O)NC(C)(C)CC(C)(C)C)cc1`, the “% Inhibition” value is recorded as -9% and the Z score is given as 1.78.

With `O=C(O)CC1(NCc2cc3c(cc2Br)OCO3)CCOCC1`, the “% Inhibition” value is 2% and the Z score is listed as -0.31.

Take `COCCN(CC(=O)N(Cc1cccn1Cc1ccc(Br)cc1)C1CCCCC1)C(=O)c1ccc(OC)cc1OC`: the “% Inhibition” value is listed as -10% and the Z score is recorded as 1.14.

For the compound `CC[C@H](NC(=O)CNS(C)(=O)=O)c1nccs1`, the “% Inhibition” value was -14% and the Z score is 2.

For `Cc1nn(C)cc1-c1nn(S(=O)(=O)c2ccccc2)c(-c2cn(C)nc2C)c1Cl`, the “% Inhibition” value is 30% and the Z score is on record as -3.37.

Regarding `CC1=NN(c2ccc(Cl)cc2)C(=O)C1C(c1ccccc1Cl)c1c(C)nn(-c2ccc(Cl)cc2)c1O` (centres undefined), the “% Inhibition” value was -11% and the Z score was 1.71.

Consider `Cn1c(C(F)(F)F)nn(CC(=O)NCc2ccco2)c1=O`, for which the “% Inhibition” value turned out to be 12% and the Z score is recorded as -1.37.

For `O=C(Nc1ccc(OCc2ccccc2)cc1)c1ccc2ccccc2c1`, the “% Inhibition” value was -3% and the Z score turned out to be 0.41.

For `Cc1cnn(-c2cc(C(=O)O)cc(S(=O)(=O)N3CCCCCC3)c2)c1`, the “% Inhibition” value is 16% and the Z score is recorded as -2.1.

For the compound `O=C1CNC(=O)N1[C@H]1CCN(S(=O)(=O)Cc2ccccc2F)C1`, the “% Inhibition” value is given as -13% and the Z score worked out at 2.38.

On to `COc1cc(-c2ncc(C(=O)N3CCOCC3)c(N3CCN(c4ccccc4F)CC3)n2)cc(OC)c1OC`, for which the “% Inhibition” value was -27% and the Z score is 2.37.

For `Cn1cc(S(=O)(=O)NCc2nccnc2-c2cccs2)cn1`, the “% Inhibition” value was -8% and the Z score is 1.57.

Regarding `Cc1cc(Oc2cc(N3CCCC3)ncn2)ccc1Cl`, the “% Inhibition” value is recorded as -6% and the Z score turned out to be 0.96.

Turning to `COc1ccc(C2(NCc3cc(OC)c(OCC(N)=O)c(OC)c3)CCCCCC2)cc1`, the “% Inhibition” value is -4% and the Z score is 0.78.

Regarding `CC(C)[C@H](NC(=O)N1CCCCCCC1)c1cccnc1`, the “% Inhibition” value was -11% and the Z score is 1.13.

Regarding `CCN(Cc1nnc(-c2ccccc2)o1)C1CCCCC1`, the “% Inhibition” value was -4% and the Z score was found to be 0.48.

With `O=S(=O)(Nc1nc2ccccc2nc1Nc1ccc2c(c1)OCO2)c1ccc(Br)cc1`, the “% Inhibition” value is -4% and the Z score is 0.48.

In the case of `CCCNC(=O)c1ccc2c(c1)nc1n2CC[C@H](C)C1`, the “% Inhibition” value is given as -24% and the Z score stood at 3.33.

As to `Cc1ccc(F)cc1CN1CCC2(CC1)C[C@@H]2C(=O)O`, the “% Inhibition” value was -6% and the Z score is 0.56.

Consider `CCN(Cc1ccc2[nH]ccc2c1)Cc1nc(C)no1`, for which the “% Inhibition” value is reported as -10% and the Z score was found to be 1.23.

In the case of `CC(C)(C)n1nnc(CNc2cnccc2-n2cccn2)n1`, the “% Inhibition” value is -2% and the Z score was found to be 0.29.

As for `CCc1nc(N2CCC[C@H](CNC(=O)c3ccoc3)C2)no1`, the “% Inhibition” value is recorded as -1% and the Z score was 0.26.

`COc1ccc(CN(CCC(C)C)C[C@H](O)COCc2ccccc2)cc1`: the “% Inhibition” value is given as 6% and the Z score is reported as -0.87.

With `CNC(=O)[C@H]1CC(=O)N(c2cccc(NC(=O)Nc3c(C)cccc3C)c2)C1`, the “% Inhibition” value is listed as -8% and the Z score is 1.15.

Take `CC1(C)Cc2ccccc2CN1C(=O)c1cn(C[C@H]2CCCNC2)nn1`: the “% Inhibition” value is recorded as -5% and the Z score worked out at 0.98.

Turning to `COc1ccc(C(=O)Nc2nc3ccccc3n2C2CCCC2)nn1`, the “% Inhibition” value is 7% and the Z score is given as -0.97.

Take `Cc1cc(C)n(CC(=O)N2CCN(Cc3ccccc3)CC[C@@H]2C)n1`: the “% Inhibition” value is -10% and the Z score is recorded as 1.12.

On to `Cc1ccc(F)c(-n2nc(C(=O)N3CC[C@]4(CNC(=O)C4)C3)c3c2CCC3)c1`, for which the “% Inhibition” value is -6% and the Z score is given as 0.68.

As for `Cc1cc(F)ccc1[C@H]1C(=O)NCCN1C(=O)c1ccn2ccnc2c1`, the “% Inhibition” value was determined as 2% and the Z score is -0.23.

As for `O=C(NCCc1nccn1Cc1ccccc1)c1ccc2c(c1)C(=O)N(Cc1ccccc1)C2=O`, the “% Inhibition” value was 2% and the Z score is listed as -0.33.

For `CC/C(=N\NC(=O)OC(C)(C)C)NC1CCCC1`, the “% Inhibition” value is listed as -14% and the Z score is 1.54.

On to `C[C@@]1(C(=O)NCc2ccccc2)Cn2cnc(C(=O)NCCc3ccccc3)c2C(=O)N1C1CC1`, for which the “% Inhibition” value is -9% and the Z score was determined as 1.49.

As to `C[C@]1(/[N+]([O-])=C/c2ccccc2C(F)(F)F)CCCCC1=O`, the “% Inhibition” value is recorded as -13% and the Z score was found to be 1.47.

Consider `O=c1cc[nH]c(CCc2ccccc2)n1`, for which the “% Inhibition” value is recorded as -10% and the Z score was 1.34.

On to `COc1ccc(NC(=O)c2c(Nc3ccc(OC(F)F)cc3)sc(C(=O)Nc3ccc4c(c3)OCO4)c2N)cc1Cl`, for which the “% Inhibition” value was -3% and the Z score is given as 0.3.

In the case of `N#CC1CCN(C(=O)c2ccccc2Cc2ccc(Cl)cc2)CC1`, the “% Inhibition” value is 16% and the Z score is -2.08.

For the compound `C[C@H](N)c1cc(C(C)(C)C)c(O)c(C(C)(C)C)c1`, the “% Inhibition” value is recorded as 2% and the Z score is reported as -0.15.

For the compound `Cc1ccc(C(=O)CN(c2nc3nc(C)cc(C)n3n2)S(=O)(=O)c2ccc(C)cc2)cc1`, the “% Inhibition” value was -4% and the Z score stood at 0.63.

As for `COc1ncccc1CNC[C@H]1Cn2c(-c3ccc(Cl)cc3)cnc2CO1`, the “% Inhibition” value stood at 8% and the Z score is given as -0.88.

As to `CC1CN(c2ccc(NC(=O)NCC3CC3)cc2)CC(C)O1` (centres undefined), the “% Inhibition” value is -1% and the Z score was 0.11.

Consider `Cc1cc(Cl)cc2c1NC(=O)C21NC(CC(N)=O)[C@H]2C(=O)N(Cc3ccc(F)cc3)C(=O)[C@H]21` (some centres undefined), for which the “% Inhibition” value is reported as -6% and the Z score is 0.89.

`O=C(Nc1cc(F)cc(NCC(F)(F)F)c1)c1cc(C2CC2)no1`: the “% Inhibition” value worked out at 7% and the Z score was -1.18.

For the compound `CCN(CC)c1ccccc1COC(=O)C1CCOCC1`, the “% Inhibition” value is listed as -10% and the Z score was 0.84.

As to `Cc1cc(C)c(C(=O)N2CCC[C@H](c3nccn3Cc3ccccc3)C2)cn1`, the “% Inhibition” value is recorded as 12% and the Z score is reported as -1.39.

With `Cc1onc(N)c1S(=O)(=O)NCC1(n2cccn2)CC1`, the “% Inhibition” value is given as -13% and the Z score was determined as 1.66.

For the compound `CN1C(=O)CC[C@@]12CCN(S(=O)(=O)c1ccc(F)cc1)C2`, the “% Inhibition” value is -2% and the Z score stood at 0.31.

Consider `CN(CC(=O)NC[C@H]1CCCO1)Cc1cccc(Cl)c1Cl`, for which the “% Inhibition” value is on record as 1% and the Z score is -0.14.

In the case of `C#CCN(C)S(=O)(=O)c1ccc(OC)cc1`, the “% Inhibition” value is listed as -9% and the Z score is given as 1.12.

Take `CC[C@@H](CN(C)Cc1ccccc1)NC(=O)C1CCN(c2nc3cccnc3n(CC)c2=O)CC1`: the “% Inhibition” value is on record as 32% and the Z score was -2.56.

Consider `CC(C)c1nnc(CN[C@H](C)c2ccc(F)cc2Cl)o1`, for which the “% Inhibition” value is given as -10% and the Z score was 1.29.

Consider `CN(CCc1ccccn1)[C@H]1CCc2ccccc2C1`, for which the “% Inhibition” value is reported as -9% and the Z score stood at 1.19.

For the origin of these results see ChEMBL document CHEMBL4888484, “Replenishing the malaria drug discovery pipeline: Screening and hit evaluation of the MMV Hit Generation Library 1 (HGL1) against asexual blood stage Plasmodium falciparum ,using a nano luciferase reporter read-out” (2022).
